In PubChem BioAssay AID602393 (Broad Institute, 2012):
Hit rate of the full screen: of about 350,000 compounds, about 7,000 (2%) were called active. This list was built around the results that the source calls inconclusive (neither active nor inactive); the mix of calls is not that of the screen. Cut-off read from the data, not from the text of the source: active = activation above about 40%; inconclusive = no clear call, values can overlap the other calls; inactive = below that.

Experiment: raisers of Bmi1 knock-in reporter signal – mouse ES cells, Bmi1 luciferase knock-in, single point, esBAF inhibitor project, primary screen (AID 602393);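 note: 0% = median of the plate's neutral control wells and 100% = double that signal; a rise in the Bmi1 reporter signal indicates esBAF inhibition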
Conditions: 24 h, at 12.5 µM, hits give high values, 100% = twice the neutral-well signal

| SMILES | reporter increase |
| --- | --- |
| COc1cccc(NC(=O)Nc2ccc3c(c2)CCC3)c1 | inconclusive: 45.9% |
| Cc1ccc(C)n1-n1c(C)nc2sc(-c3ccccc3)cc2c1=O | inconclusive: 41.4% |
| CCS(=O)(=O)N1CCC(c2nc(-c3ccc(C)cc3)no2)CC1 | inconclusive: 40.4% |
| O=C(CCN1C(=O)C2CCCCC2C1=O)Nc1nc2c(F)cc(F)cc2s1 (configuration not stated) | inconclusive: 40.4% |
| CN(C)CCSc1nnc2sc3ccccc3n12 | inconclusive: 43.2% |
| Cn1cnc2cc(NCc3ccc(Cl)cc3)ccc21 | inconclusive: 41% |
| COC(=O)c1c(C)[nH]c(C(=O)CN2C(=O)C3CC=CCC3C2=O)c1C (configuration not stated) | inconclusive: 42% |
| COc1ccc(NC(=O)c2cccc3ccccc23)cc1 | inconclusive: 40.3% |
| O=C(O)c1nn(-c2ccccc2)c(-c2ccccc2)c1C(=O)c1ccccc1 | inactive: -2.54% |
| COC(=O)Cn1c2nc3ccccc3nc2c2cccc(C)c21 | inactive: 5.68% |
| Cc1ccc(NC(=O)c2ccc3nc(N4CCOCC4)sc3c2)c(Cl)c1 | inconclusive: 40.4% |
| Cc1nn(-c2ccccc2)c(Cl)c1/C=N/NC(=O)c1ccnn1C | inconclusive: 42.8% |
| Fc1cccc(NCc2cn3ccccc3n2)c1 | active: 60.3% |
| Cc1ccc2nc(-c3ccccc3)c(Cc3cccc(Cl)c3)n2c1 | inconclusive: 44.7% |
| CCOC(=O)c1ccc(-c2ccc3ncnc(N(C)Cc4sccc4C)c3c2)o1 | inconclusive: 41.3% |
| CCN1CCN(c2ccc(NC(=O)c3cccc(N4CCCC4=O)c3)cc2)CC1 | active: 60.2% |
| O=C(c1cc2ccccc2oc1=O)N(Cc1ccccc1F)C1CCS(=O)(=O)C1 (configuration not stated) | inconclusive: 41.6% |
| Cc1cccc(-c2ccc3c(c2)C2CC3CCN2Cc2ccc3c(c2)OCO3)c1 (configuration not stated) | inactive: -10.1% |
| C=CCN1N=C(/C=C/c2ccc(OC)cc2)CCC1=O | inconclusive: 43.8% |
| CC(=O)Nc1ccccc1OCC(=O)c1ccc2c(c1)OCO2 | inconclusive: 40.8% |
| Cc1ccc(NC(=O)N/C=C/c2ccc(Cl)cc2)cc1 | inconclusive: 45.3% |
| Cc1ccccc1CSc1nnc(-c2ccccn2)n1C | inconclusive: 43.6% |

| SMILES | reporter increase |
| --- | --- |
| CO[C@H]1CN(C)C(=O)c2cc(NC(=O)C3CC3)ccc2OC[C@@H](C)N(C(=O)CN2CCOCC2)C[C@@H]1C | inactive: -2.13% |
| Cc1cccc(COc2ccc(/C=N/NC(=O)c3nnn(-c4nonc4N)c3CN3CCCCC3)cc2)c1 | inconclusive: 48.5% |
| Cc1nn(-c2ccccc2)c(/N=C/c2ccc(O)cc2)c1-c1ccccc1 | inconclusive: 43.4% |
| C[C@@H]1CN([C@H](C)CO)C(=O)c2cc(-c3cncnc3)cnc2O[C@H]1CN(C)C(=O)Cc1ccccn1 | inactive: -4.61% |
| O=C(NCC[C@@H]1CC[C@@H](NC(=O)c2ccc3c(c2)OCO3)[C@H](CO)O1)Nc1ccc(Cl)cc1 | active: 62.9% |
| CC(=O)c1ccccc1C(=O)N1CCCC(CNC(=O)c2ccccc2Cl)C1 (configuration not stated) | inconclusive: 41.7% |
| O=C(CSc1nnc(-c2ccccc2Br)o1)N1CCOCC1 | inconclusive: 45.4% |
| CC(=O)c1ccc(N(C(=O)Cc2c[nH]c3ccccc23)C(C(=O)NC2CCCCC2)c2cccs2)cc1 (configuration not stated) | inconclusive: 53.8% |
| O=[N+]([O-])c1ccc(-n2cc(-c3ccccc3)nn2)cc1 | inconclusive: 46.7% |
| Fc1ccc(Cc2nnc(-c3cccs3)o2)cc1 | inconclusive: 40.8% |
| COC(=O)c1ccc(-c2ccc(/C=N/NC(=O)CC3(C)OCCCO3)o2)cc1 | inconclusive: 43.6% |
| C[C@@H]1Cc2c(O)c(O)cc(O)c2C(=O)O1 | inactive: -0.408% |
| O=C(OCCOc1ccccc1)c1n[nH]c2ccccc12 | inconclusive: 45.8% |
| CSc1ncccc1C(=O)OCc1ccccc1 | inconclusive: 40.8% |
| O=C(C[C@H]1CC[C@H](NC(=O)Nc2ccc(C(F)(F)F)cc2)[C@@H](CO)O1)NCCN1CCCC1 | inactive: -6.7% |
| Clc1cccc(Cl)c1Cn1nnc(N2CCCC2)n1 | inconclusive: 45.5% |
| Cc1cccc(-c2cc3nc(C)cc(=O)n3[nH]2)c1 | inconclusive: 41.1% |
| OCc1cn(-c2ccccc2)nc1-c1cc2ccccc2o1 | inconclusive: 46.5% |
| COc1ccc(C(=O)NCCSc2ccccc2C)cc1 | inconclusive: 46.9% |
| O=C(CNS(=O)(=O)c1cccs1)N1CCc2ccccc2C1 | inconclusive: 40.4% |
| O=C(N/N=C/c1ccc2c(c1)OCO2)C(=O)N1CCCC1 | inconclusive: 41.4% |
| CCCC1CCc2c(sc(NC(=O)c3cccs3)c2C(N)=O)C1 (configuration not stated) | inconclusive: 59.5% |

| SMILES | reporter increase |
| --- | --- |
| Cc1cccc(-n2ncc3c(NCc4cccnc4)ncnc32)c1 | active: 87.9% |
| CC1CCc2[nH]c3ccc(C(=O)NCC4CCCO4)cc3c2C1 (configuration not stated) | inconclusive: 40.6% |
| C[C@@H]1CCCCO[C@H](CN(C)CC2CCCCC2)[C@H](C)CN([C@@H](C)CO)C(=O)c2cc(NS(=O)(=O)c3ccc(F)cc3)ccc2O1 | inactive: -10.2% |
| COc1ccc(C(=O)CC(=O)C(=O)Nc2ccc(C)c(Cl)c2)cc1 | inconclusive: 36.3% |
| C[C@H]1CN([C@@H](C)CO)C(=O)c2ccccc2-c2ccccc2CO[C@@H]1CN(C)C(=O)Nc1ccccc1 | inactive: -0.142% |
| O=C(Nc1ccc(F)cc1)c1ccc2ncsc2c1 | inconclusive: 40.7% |
| COc1cccc2cc(CC(=O)c3cc(C)ccc3C)c(=O)oc12 | inconclusive: 50.7% |
| CO[C@@H]1CN(C)C(=O)c2ccc(NC(C)=O)cc2OC[C@@H](C)N(C(=O)CN2CCOCC2)C[C@H]1C | inactive: 0.558% |
| Cc1ccc(NC(NC(=O)c2cccs2)C(Cl)(Cl)Cl)cc1C (configuration not stated) | inactive: -1.37% |
| CCn1nnc2sc3c(c2c1=O)CCC(C)C3 (configuration not stated) | inconclusive: 44% |
| O=C(c1cccc(F)c1)N1CCC2(CC1)NCCc1[nH]cnc12 | inactive: -5.05% |
| O=C(Nc1ccc2nc(-c3cccnc3)[nH]c2c1)C12CC3CC(CC(C3)C1)C2 | inconclusive: 40.1% |
| CN(C)c1ccc(C2=NOC(CN3C(=O)c4ccccc4S3(=O)=O)C2)cc1 (configuration not stated) | inconclusive: 42.6% |
| CCOC(=O)c1sc(=NC(=O)c2cccc(OC)c2)n(C)c1C | inconclusive: 41.2% |
| C[C@H](CO)N1C[C@H](C)[C@H](CN(C)S(=O)(=O)c2ccccc2)Oc2ccc(NC(=O)Nc3ccc(C(F)(F)F)cc3)cc2C1=O | inactive: 1.24% |
| COc1ccc2c(c1)S/C(=C\C(=O)c1ccncc1)N2C | inconclusive: 40.9% |
| COc1ccc(-c2csc(N3CCOCC3)n2)cc1OC | active: 58.4% |
| c1cnc2c(OCc3nc4ccccc4[nH]3)cccc2c1 | inconclusive: 43% |
| CCC(=O)Nc1ccc2c(c1)OC[C@@H](C)N(C(=O)CN(C)C)C[C@H](C)[C@@H](OC)CN(C)C2=O | inactive: -2.26% |
| CO[C@@H]1CN(C)C(=O)c2cc(NC(=O)Nc3ccccc3F)ccc2OC[C@@H](C)N(Cc2ccccc2C(=O)O)C[C@H]1C | inactive: -7.51% |
| CCOc1c(OC(C)=O)ccc(/C=C/c2ccc3cccc(OC(C)=O)c3n2)c1[N+](=O)[O-] | active: 66.4% |
| CO[C@@H]1CN(C)C(=O)c2cc(NS(=O)(=O)c3cn(C)cn3)ccc2OC[C@@H](C)N(Cc2cccc(F)c2)C[C@@H]1C | inactive: -1.1% |

| SMILES | reporter increase |
| --- | --- |
| COC(=O)C(Cc1ccc(O)cc1)NC(=O)c1ccc2c(c1)OCCO2 (configuration not stated) | active: 55% |
| O=C(Nc1cccnc1)c1sc2cccc(F)c2c1Cl | inconclusive: 42.5% |
| COc1cccc(CNC(=O)CCC2CCCN(C(=O)c3cc4ccccc4o3)C2)c1 (configuration not stated) | active: 61.5% |
| COc1ccc2c(=O)cc(-c3ccccc3F)oc2c1 | inconclusive: 42.5% |
| Cc1cccc(Nc2nc(-c3ccccc3)cs2)n1 | inconclusive: 56% |
| O=C(CC1CC1)Nc1ccc2c(c1)[C@H]1C[C@H](CC(=O)NC3CCCC3)O[C@H](CO)[C@H]1O2 | inactive: -0.118% |
| CN1CCc2c(sc3nc(SCC(=O)NCc4ccco4)n(-c4ccccc4)c(=O)c23)C1 | active: 70.3% |
| Cn1cccc1/C=C1\SC(=Nc2cccc(O)c2)NC1=O | inconclusive: 46.2% |
| CC(=O)Nc1ccc(NC(=O)c2ccc(COc3ccc(C)cc3)o2)cc1 | inconclusive: 38.9% |
| O=C(c1ccccn1)N1C[C@H]2[C@@H](c3ccccc31)[C@H](CO)N2C(=O)c1ccccn1 | inactive: -1.22% |
| CN(C)c1ccc(/C(=N\O)C(F)(F)F)cc1 | inconclusive: 40.3% |
| Cc1cc2c(cc1S(=O)(=O)N1CCN(c3ccccc3)CC1)OCC(=O)N2 | inactive: -1.48% |
| COc1ccc2c(=O)c3ccccc3oc2c1 | active: 58% |
| O=C(Nc1ccc(Cl)cc1)Nc1ccccn1 | inconclusive: 37.2% |
| Cc1cc(NC2CCCC2)n2nc(C)c(-c3ccccc3)c2n1 | inconclusive: 42% |
| Cc1ccc(O)c(N=Nc2ccc(S(=O)(=O)N3CCOCC3)cc2)c1 | inconclusive: 44.4% |
| CC1(C)NC(=O)N(CCOCCOc2ccc3ccccc3c2Br)C1=O | inconclusive: 43.4% |
| CN1CCN(C(=O)C[C@H]2CC[C@@H]3[C@H](COC[C@H](O)CN3Cc3cccc(F)c3)O2)CC1 | inactive: -6.81% |
| CC1(C)N([O-])C(c2cccs2)=C[N+]1=O | inactive: -6.86% |
| O=C(CCc1nnc(CCCc2ccccc2)o1)N1CCCCCC1 | inconclusive: 40.8% |
| CC1CCCC(C)N1C(=O)CSc1nnc(-c2c[nH]c3ccccc23)o1 (configuration not stated) | inconclusive: 41.1% |
